This continues a long series; more values of the same kind are listed elsewhere.

In EPA's CvTdb concentration-time database one finds concentration in liver, concentration in plasma and concentration in brain data, which are given here for two molecules.

Data set [1] deals with Rat. The data set is described as follows: concentration in liver after dosing. As to conditions: 1 h; dosed: 3,3',4,4',5-pentachlorobiphenyl; 1000 mg/kg; oral; Female; F344.
Data set [2] deals with Rat. Description: concentration in plasma after dosing. As to conditions: 8760 h; dosed: 3,3',4,4',5-pentachlorobiphenyl; 1000 mg/kg; oral; Male; Harlan Sprague Dawley.
In data set [3] the test system is Rat. Description: concentration in liver after dosing. As to conditions: 3984 h; dosed: 3,3',4,4',5-pentachlorobiphenyl; 1000 mg/kg; oral; Male; F344.
The test system of data set [4] is Rat. Description: concentration in liver after dosing. Particulars: 6744 h; dosed: 3,3',4,4',5-pentachlorobiphenyl; 1000 mg/kg; oral; Female; Harlan Sprague Dawley.
Data set [5] deals with Rat. Description: concentration in liver after dosing. As to conditions: 768 h; dosed: 3,3',4,4',5-pentachlorobiphenyl; 1000 mg/kg; oral; Female; Harlan Sprague Dawley.
Data set [6] relates to Rat. The data set is described as follows: concentration in plasma after dosing. Particulars: 1.5 h; dosed: alpha/beta-Thujone mixture; 25 mg/kg; oral; Female; F344.
Data set [7] has as its system Rat. The data set is described as follows: concentration in plasma after dosing. As to conditions: 1.5 h; dosed: alpha/beta-Thujone mixture; 50 mg/kg; oral; Male; F344.
Data set [8] deals with Rat. Description: concentration in brain after dosing. Particulars: 0.5 h; dosed: alpha/beta-Thujone mixture; 25 mg/kg; oral; Female; F344.
Data set [9] deals with Rat. The data set is described as follows: concentration in brain after dosing. As to conditions: 3 h; dosed: alpha/beta-Thujone mixture; 50 mg/kg; oral; Male; F344.
The subject of data set [10] is Rat. Description: concentration in plasma after dosing. As to conditions: 1 h; dosed: 76231-76-0; 3.0 mg/kg; iv; Male; F344.
Data set [11] deals with Rat. Description: concentration in plasma after dosing. As to conditions: 3 h; dosed: alpha/beta-Thujone mixture; 25 mg/kg; oral; Male; F344.
Data set [12] relates to Rat. Description: concentration in plasma after dosing. Particulars: 20 min; dosed: 76231-76-0; 3.0 mg/kg; iv; Male; F344.
The test system of data set [13] is Rat. The data set is described as follows: concentration in brain after dosing. Particulars: 0.5 h; dosed: 76231-76-0; 3.0 mg/kg; iv; Female; F344.
For data set [14], the system named is Rat. Description: concentration in plasma after dosing. Particulars: 1 h; dosed: 76231-76-0; 3.0 mg/kg; iv; Male; F344. The source holds these as a separate data set.
Data set [15] relates to Rat. The data set is described as follows: concentration in brain after dosing. Particulars: 0.5 h; dosed: alpha/beta-Thujone mixture; 50 mg/kg; oral; Female; F344.
Data set [16] relates to Rat. Description: concentration in plasma after dosing. As to conditions: 12 h; dosed: alpha/beta-Thujone mixture; 50 mg/kg; oral; Female; F344.
Data set [17] relates to Rat. Description: concentration in plasma after dosing. Particulars: 5 min; dosed: 76231-76-0; 3.0 mg/kg; iv; Male; F344.

Regarding `Clc1ccc(-c2cc(Cl)c(Cl)c(Cl)c2)cc1Cl` [3,3',4,4',5-pentachlorobiphenyl], the concentration in liver is 1520 pg/g in the data set on Rat [1], 2230 pg/g in the data set on Rat [3], 1140 pg/g with Rat [4] and 6160 pg/g in the data set on Rat [5]. In the data set with Rat [2], this molecule registered a concentration in plasma of 0.0212 ng/mL.
As for `CC(C)[C@]12CC(=O)[C@H](C)[C@H]1C2` [alpha-Thujone], the concentration in plasma in the data set on Rat [6] amounted to 131 ng/mL; in the data set with Rat [7] it was 247 ng/mL; in the data set on Rat [10] it was 79.5 ng/mL; in the data set on Rat [11], 114 ng/mL; in the data set with Rat [12], 195 ng/mL; with Rat [14], 92.9 ng/mL. The figures for the concentration in plasma in the data set with Rat [16] and in the data set with Rat [17] were 11.5 ng/mL and 806 ng/mL, respectively. In addition, the concentration in brain in the data set on Rat [8] came to 1020 ng/g; in the data set on Rat [9], 728 ng/g; with Rat [13] it was 322 ng/g; with Rat [15] it was 3070 ng/g.
